Results taken from PubChem BioAssay AID1963576 (National Center for Advancing Translational Sciences (NCATS), 2024).
Screen size: about 46,000 compounds; about 60 (0.1%) were called active. About 3% were inconclusive and are not listed. The call rests on the fitted dose curve; in most records, active means well fitted inhibition curve with a large enough effect; inconclusive means small, poorly fitted or top-dose-only effect; inactive means no such curve, though single readings can be large or run the other way. This is one part of the list.

Test: Primary qHTS assay for Inhibitors of ovarian cancer metastasis using an organotypic tumor microenvironment (TME) model. Further: nearly all actives have a fitted effect of over 65% in size.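 On activity change, negative = inhibition: plate controls were DMSO wells for no effect and tomatine positive control wells for full effect.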
Conditions: SKOV3ip1-GFP adhesion/invasion on 3D omental model, fluorescence; series mostly up to 45.8 µM; activity change, negative = inhibition: at the top concentration
Summary of the method: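 qHTS, 4-pt dose (0.36-46 umol/L); SKOV3ip1-GFP, 1,200 cells/well, no FBS; primary omental fibroblast/mesothelial co-culture 48 h pre-grown; 2 h RT + 16 h 37 C; PBS wash, 4% PFA; GFP count 488/509 nm.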

Activity change, negative = inhibition, inactive:
CCN(CC)S(=O)(=O)c1ccc2c(c1)N(CC(=O)N1CCN(c3cccc(OC)c3)CC1)C(=O)CO2 -4.08%
Cc1c(Nc2nc3ccccc3n3c(C)nnc23)cccc1C(=O)O 2.53%
CCOc1ccccc1CNC(=O)c1ccc2c(c1)nc1n2CCCCC1 10%
Cc1ccc(Cl)cc1-n1ncc2c(NCCCc3ccccc3)ncnc21 9.39%
CN(C)c1ccc(-c2nc(-c3ccco3)no2)cc1[N+](=O)[O-] 0.408%
COc1ccc(NC(=O)c2ccco2)cc1NC(=O)COc1ccc(Cl)c(C)c1 4.06%
Cc1ccc(NC(=O)N2CC3CCCN3c3ccccc32)c(C)c1 (stereo not drawn) -5.98%
CCOc1ccc(C(=O)Nc2c(C(=O)N3CCN(c4ccccc4F)CC3)oc3ccccc23)cc1 -0.252%
CCc1cccc(C)c1NC(=O)CCn1c(=O)c2cccn2c2ccccc21 -8.69%
CC(Oc1ccc(Br)cc1)C(=O)Nc1ncn[nH]1 (stereo not drawn) 4.94%
Cc1ccc([N+](=O)[O-])cc1S(=O)(=O)N1CCn2cccc2C1c1ccccc1 (stereo not drawn) -6.29%
CCn1cc(C(=O)N2CCN(c3cc(C)ccc3C)CC2)c(=O)c2cc(S(=O)(=O)N3CCCCC3)ccc21 -8.11%
Cc1nc(SC(C)C(=O)Nc2ccccc2Cl)cc(-c2ccccc2)n1 (stereo not drawn) -0.727%
Cc1ccc(N2C(=O)N(Cc3cc(=O)n4ccccc4n3)c3ccccc3S2(=O)=O)cc1Cl 9.96%
Cc1ccc(C)c(NC(=O)C2CCCN(S(=O)(=O)c3cn(C)cn3)C2)c1 (stereo not drawn) -7.52%
COc1ccc(NC(=O)CCc2nnc3n(Cc4ccccc4Cl)c(=O)c4ccccc4n23)cc1 -7.12%
Cc1ccc2nc(-c3ccc(Cl)c(NC(=O)COc4ccc(C(C)C)cc4)c3)oc2c1 5.47%
O=C1NC(=O)C(=Cc2ccc3nccc(-c4ccncc4)c3c2)S1 -14.6%
CCOC(=O)CSc1nc2ccccc2c(=O)n1-c1cccc(C)c1 -2.77%
CSc1ccc(CCNC(=O)c2ccc(-c3nc(COc4ccc(C)cc4)c(C)o3)cc2)cc1 2.35%
CCNc1cc(N2CCN(C3CCCCC3)CC2)c2noc3c2c1C(=O)c1ccccc1-3 -6.46%
COc1ccc(Br)cc1CNC(=O)CCSCc1ccc(C)cc1 -7.86%
O=C(Cn1cc(S(=O)(=O)c2ccccc2)c(=O)c2cc3c(cc21)OCO3)Nc1ccc(Cl)cc1 13%
O=C(O)Cc1sc(Nc2ccccc2)nc1-c1ccccc1 72.4%
COc1ccc(C(=O)Nc2ccccc2SCc2cc(=O)c3cccc(C)c3[nH]2)cc1 7.13%
COCC(C)NC(=O)c1cc2c(=O)n3cccc(C)c3nc2s1 (stereo not drawn) 14.6%
CCC(C)NC(=O)CCc1c(C)nc2c(c(C)nn2-c2ccc(C)cc2)c1C (stereo not drawn) -7.86%
CCOc1cccc(CC(=O)NCc2ccc3c(c2)CCN3C(C)=O)c1OCC -2.99%
Cc1nn(CCC(=O)NCc2ccc(Cl)cc2)c(=O)c2nn(-c3ccccc3)c(C)c12 -3.41%
COc1ccc(-c2nc3ccc(C4=NNC(=O)CC4C)cc3[nH]2)cc1 (stereo not drawn) 13.5%
COc1ccc(-c2onc(C)c2C)cc1S(=O)(=O)NCc1ccc(C)o1 -16.7%
COc1ccc(NC(=O)CSc2nc3ccccc3n2CC(=O)N2CCCCC2C)cc1 (stereo not drawn) -0.945%
CC(CNC(=O)C1CCN(C(=O)N2CCOc3ccc(Cl)cc32)CC1)c1ccccc1 (stereo not drawn) 6.51%
O=C(NCCCc1nc2ccccc2n1Cc1ccccc1Cl)c1ccco1 3.85%
O=[N+]([O-])c1cc(-c2nc(-c3ccco3)no2)ccc1NCc1ccccc1 5.41%
CN(CC=CC#CC(C)(C)C)Cc1cccc2ccccc12 -4.62%
N#CC1=C2SCN(C3CCCCC3)CN2C(=O)CC1c1c(F)cccc1Cl (stereo not drawn) 0.589%
Cc1ccc(NC(=O)CC2Nc3cc(C)c(C)cc3NC2=O)c(C)c1 (stereo not drawn) 6.35%
Cc1ccc(Cc2nc3ccccc3nc2SCC(=O)N2CCN(c3ccccc3)CC2)cc1 0.533%
Cc1nn(CCCC(=O)NCc2ccc(OC(C)C)cc2)c(=O)c2c1sc1ccccc12 23.9%
COc1ccc(S(=O)(=O)c2nnn(-c3ccccc3F)c2C)cc1 1.19%
COc1ccc(-n2nc(C(=O)N(C)c3cc(Cl)ccc3OC)c3c4ccccc4n(C)c3c2=O)cc1 -15%
COc1ccc(Cn2c(CO)cnc2SCc2ccc(F)cc2)cc1 -1.91%
CCc1ccc(Sc2cc(C(=O)O)c3ccccc3n2)cc1 12.1%
CCOc1ccc(NC(=O)c2c(Nc3ccccc3C)sc(C(=O)c3ccc(Cl)cc3)c2N)cc1 -8.08%
Cc1cccc(N(Cc2cc3ccccc3[nH]c2=O)C(=O)c2cccc(Cl)c2)c1 -13.3%
CCCn1c(=N)n(CC(O)COc2ccccc2OC)c2ccccc21 (stereo not drawn) 3.56%

outcome, inactive:
Cc1ccc(-c2cc(C(=O)N(Cc3ccc(C(C)(C)C)cc3)Cc3ccco3)no2)cc1
Fc1ccc(-n2ncc3c(N4CCCCCC4)ncnc32)cc1
Cc1cc(N2CCN(c3cccc(C(F)(F)F)c3)CC2)n2nc(-c3ccccc3)nc2n1
CCOc1ccc(-n2nc(CO)c(C(=O)NCc3cccs3)n2)cc1
COc1ccc(N2CCN(Cc3cccn3-c3nnc(N4CCN(C5CCCCC5)CC4)s3)CC2)cc1
CCOc1ccccc1CNC(=O)Cn1cc2c(n1)-c1c(oc(C(=O)N3CCCC3)c1C)CC2
O=C(CS(=O)(=O)c1cccc2nsnc12)N1CCN(c2cccc(C(F)(F)F)c2)CC1
Cc1ccc(S(=O)(=O)N2CCN(Cc3nc4ccc(C)cc4o3)CC2)cc1
COc1ccc(S(=O)(=O)NCCS(=O)(=O)N2CCN(c3ccccc3)CC2)cc1C
COC(=O)c1ccccc1NC(=O)C1=C(C)C(=O)OC12CCCCCC2
O=C(O)Cc1ccc(NC2(c3ccccc3)C(=O)c3ccccc3C2=O)cc1
COc1ccc(CCCc2nnc(SCC(=O)Nc3cccc(C)c3)o2)cc1
CCN(c1ccc(Cl)cc1)S(=O)(=O)c1nnc(NC(=O)c2ccccc2C)s1
CCOc1ccccc1NC(=O)C1=C(C)Nc2ncnn2C1c1ccc(NC(C)=O)cc1 (stereo not drawn)
Cc1cccc(CCNC(=O)c2ccc(CSCc3cccc(Cl)c3)o2)c1
Cc1ccc(N2CC(NC(=O)CCc3ccccc3)CC2=O)cc1C (stereo not drawn)
